The test has as its target Genome polyprotein (dengue virus type 2) (UniProt P29990).
[1] abbreviates: Thailand/16681/1984, Concentration 25.0 uM, Number of replicates 1.0.

Molecules are shown by their SMILES. About 110 (5.5%) of roughly 2,000 compounds showed an effect of 50% or more. The list shows a part of the results.

Usually inhibition stands for the relative decrease from the control value, in per cent. As for `Cc1cnccc1NC(=O)c1csc(N2CCCCC2)n1`, the inhibition (Thailand/16681/1984, Concentration 49.5 uM, Number of replicates 2.0, Standard deviation 0.691667147244976 %) came out at 0.934%; the inhibition (Thailand/16681/1984, Concentration 99.01 uM, Number of replicates 2.0, Standard deviation 2.1273862022910275 %) was 2.54%; the inhibition (Thailand/16681/1984, Concentration 198.0 uM, Number of replicates 2.0, Standard deviation 0.5461016894837782 %) is 1.82%.
Take `CCn1ccnc(N2CC[C@H](c3ccncc3)C2)c1=O`: the inhibition came to 7.35% (Thailand/16681/1984, Concentration 50.0 uM, Number of replicates 2.0, Standard deviation 0.2046414941337353 %); 15% (Thailand/16681/1984, Concentration 100.0 uM, Number of replicates 2.0, Standard deviation 1.095049302766406 %); 27.7% (Thailand/16681/1984, Concentration 200.0 uM, Number of replicates 2.0, Standard deviation 0.29770915349112725 %).
With `Cc1cc(N)cc(CNc2cccc3c(CO)cc(C)nc23)c1`, the inhibition (Thailand/16681/1984, Concentration 49.95 uM, Number of replicates 2.0, Standard deviation 2.268676515546947 %) amounted to 34.9% and the inhibition (Thailand/16681/1984, Concentration 99.9 uM, Number of replicates 2.0, Standard deviation 1.0884002159453274 %) stood at 63.5%.
Consider `Cc1cc(CO)c2cccc(NC(=O)[C@@H]3CCCC[C@H]3N)c2n1`, for which the inhibition (Thailand/16681/1984, Concentration 49.95 uM, Number of replicates 2.0, Standard deviation 4.042326157041073 %) was -9.54%.
`CCOc1cc(CNC(=O)[C@]2(c3ccc(F)cc3)CCCNC2)ccc1O`: the inhibition runs as follows: (Thailand/16681/1984, Concentration 49.5 uM, Number of replicates 2.0, Standard deviation 2.112880352851639 %) -2.74%; (Thailand/16681/1984, Concentration 99.01 uM, Number of replicates 2.0, Standard deviation 2.8000385459492225 %) -1.9%; (Thailand/16681/1984, Concentration 198.0 uM, Number of replicates 2.0, Standard deviation 3.3912044677243944 %) -1.14%.
With `Cc1cc(CO)c2cccc(NCc3sccc3C)c2n1`, the inhibition came out at 9.29% (Thailand/16681/1984, Concentration 49.95 uM, Number of replicates 2.0, Standard deviation 0.6063286087751786 %) and 18.4% (Thailand/16681/1984, Concentration 99.9 uM, Number of replicates 2.0, Standard deviation 2.2830792737948777 %).
In the case of `CC1(C)CC(=O)CC(C)(C)N1C(=O)C1CCN(c2ccc(C=O)cc2)CC1`, the inhibition under setting [1] was 14%.
With `CNC(=O)c1cc(Cl)ccc1NC(=O)[C@H]1CCN(c2ccc(Cl)c(Cl)c2)C1=O`, the inhibition (Thailand/16681/1984, Concentration 49.5 uM, Number of replicates 2.0, Standard deviation 0.6759059749961148 %) was -2.34%; the inhibition (Thailand/16681/1984, Concentration 99.01 uM, Number of replicates 2.0, Standard deviation 2.6252938134395687 %) is -1.06%; the inhibition (Thailand/16681/1984, Concentration 198.0 uM, Number of replicates 2.0, Standard deviation 1.415964468900783 %) amounted to 0.175%.
As to `OC1(c2ccccc2)CCN(Cc2c[nH]c3ccccc23)CC1`, the inhibition runs as follows: (Thailand/16681/1984, Concentration 49.5 uM, Number of replicates 2.0, Standard deviation 1.5066695023711998 %) -2.62%; (Thailand/16681/1984, Concentration 99.01 uM, Number of replicates 2.0, Standard deviation 2.191923816954425 %) -1.95%; (Thailand/16681/1984, Concentration 198.0 uM, Number of replicates 2.0, Standard deviation 2.125623199617817 %) -1.95%.
As to `O=Cc1ccc(N2CCC(C(=O)Nc3ncc(F)cc3Br)CC2)cc1`, the inhibition under setting [1] is 10.9%.
The same measure, in the same setting: with `O=Cc1ccc(N2CCC(C(=O)NCc3cccc(F)c3Cl)CC2)cc1` the figure was 13.2%; with `C[C@@H](NC(=O)C1CCN(c2ccc(C=O)cc2)CC1)c1ccc2ccccc2c1`, 1.94%.
As to `FC(F)(F)c1ccccc1C1CCN(Cc2c[nH]c3ccccc23)CC1`, the inhibition came to 3.33% (Thailand/16681/1984, Concentration 49.5 uM, Number of replicates 2.0, Standard deviation 0.24287441770451368 %); 5.47% (Thailand/16681/1984, Concentration 99.01 uM, Number of replicates 2.0, Standard deviation 0.2288546900158499 %); 5.84% (Thailand/16681/1984, Concentration 198.0 uM, Number of replicates 2.0, Standard deviation 0.3608066946346046 %).
`O=S(=O)(NC1CCCCC1)c1ccc(Oc2ccccc2Cl)cc1`: the inhibition runs as follows: (Thailand/16681/1984, Concentration 49.5 uM, Number of replicates 2.0, Standard deviation 1.7919780415060578 %) 0.164%; (Thailand/16681/1984, Concentration 99.01 uM, Number of replicates 2.0, Standard deviation 2.26588512977007 %) 2.51%; (Thailand/16681/1984, Concentration 198.0 uM, Number of replicates 2.0, Standard deviation 2.2194744531827233 %) 5.38%.
Consider `CCN(CC)CCC[C@H](C)NC(=O)C1CCN(c2ccc(C=O)cc2)CC1`, for which the inhibition under setting [1] was found to be 14%.
As to `O=Cc1ccc(N2CCC(C(=O)NCCN3CCc4ccccc43)CC2)cc1`, the inhibition under setting [1] turned out to be 25.9%.
`CCc1ccc(NS(=O)(=O)c2ccc(Oc3ccccc3Cl)cc2)c(C(=O)NC)c1`: the inhibition runs as follows: (Thailand/16681/1984, Concentration 49.5 uM, Number of replicates 2.0, Standard deviation 2.280534278494396 %) 20.1%; (Thailand/16681/1984, Concentration 99.01 uM, Number of replicates 2.0, Standard deviation 1.9533776277108892 %) 35.5%; (Thailand/16681/1984, Concentration 198.0 uM, Number of replicates 2.0, Standard deviation 2.0141203401343657 %) 57.1%.
With `CCS(=O)(=O)N1CCN(C(=O)C2CCN(c3ccc(C=O)cc3)CC2)CC1`, under setting [1], the inhibition was determined as 12.7%.
On to `Cc1cc(CO)c2cccc(Cc3cccc(NC(=O)[C@@H]4CC(=O)CCN4)c3)c2n1`, for which the inhibition by setting is: (Thailand/16681/1984, Concentration 49.95 uM, Number of replicates 2.0, Standard deviation 0.827370284601473 %) 15.8%; (Thailand/16681/1984, Concentration 99.9 uM, Number of replicates 2.0, Standard deviation 0.7401310286309556 %) 32.9%.
`Cc1cnccc1NC(=O)c1cccc2c1NC(=O)CO2`: the inhibition was -4.76% (Thailand/16681/1984, Concentration 49.5 uM, Number of replicates 2.0, Standard deviation 0.7653388901379272 %); -4.6% (Thailand/16681/1984, Concentration 99.01 uM, Number of replicates 2.0, Standard deviation 0.7790757281793859 %); -4.39% (Thailand/16681/1984, Concentration 198.0 uM, Number of replicates 2.0, Standard deviation 1.0067147344967875 %).
For the compound `O=Cc1ccc(N2CCC(C(=O)N3CCC(NC(=O)c4ccccc4)CC3)CC2)cc1`, the inhibition under setting [1] came out at 12.4%.
Same read-out and setting: for `O=Cc1ccc(N2CCC(C(=O)N3CCC(n4c(=O)[nH]c5ccccc54)CC3)CC2)cc1` the value was 14.8%.
For `O=C1[C@@H]2CCCN2[C@@H](c2ccc([N+](=O)[O-])cc2)N1c1ccc([N+](=O)[O-])cc1`, the inhibition came to 1.35% (Thailand/16681/1984, Concentration 49.5 uM, Number of replicates 2.0, Standard deviation 0.6893492180908466 %); 5.8% (Thailand/16681/1984, Concentration 99.01 uM, Number of replicates 2.0, Standard deviation 0.7236546454362888 %); 14.8% (Thailand/16681/1984, Concentration 198.0 uM, Number of replicates 2.0, Standard deviation 0.5762350845888241 %).

For the origin of these results see ChEMBL document CHEMBL5606460, “ASAP - DENV-2 NS2B-NS3 protease fluorescence single point” (2024).
